# Measured values taken from PubChem BioAssay (NCATS).
# The inconclusive results got no clear call from the source; some entries with a clear call stand among them for comparison. Active and inactive are the calls of the source. Calls come from the whole dose curve; as a rule, active = well fitted curve in either direction with a large enough effect (not every such curve was filed as active); inconclusive = small, poorly fitted or top-dose-only effect, or another doubt; inactive = flat fitted curve, though single readings scatter.
# Assay: NFAT Signaling Pathway (AID 444);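 note: carbachol stimulus at about its EC50 of 1 µM final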
# Conditions: Jurkat NFAT-bla M1, carbachol, beta-lactamase ratio, 5 h; at 17.2 µM (top of the series) unless noted
# In short: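 Jurkat cells with NFAT-driven β-lactamase reporter and co-expressed M1 receptor, stimulated with carbachol (final 1 uM, ~EC50), compound titration, 5 h at 37 °C. CCF4 loaded 1 h at RT; 460/530 nm ratio gave %activity and AC50.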
# % is set by controls: 0 for no effect and ±100 for the full control effect.
row,SMILES,"activity change, negative = inhibition"
1,Clc1ccc(COc2ccccn2)c(Cl)c1,inactive: -8.68%
2,Cn1cccc1C(=O)N1CCC[C@@]2(CCN(C(c3ccccc3)c3ccccc3)C2)C1,inconclusive: -35.8% [inhibitor] [at 7.69 µM]
3,C[N@@+]1(Cc2ccc(Cl)c(Cl)c2)CCC[C@@H]1c1ccc[n+](Cc2ccc(Cl)c(Cl)c2)c1,inconclusive: -38.7% [inhibitor] [at 7.69 µM]
4,Cc1cc(Cn2ccnc2)c(C)cc1Cn1ccnc1,inconclusive: -36.2% [inhibitor]
5,Nc1ccc(S(=O)(=O)NCc2nccs2)cc1,inactive: 7.98% [at 7.69 µM]
6,Cc1c(O)c(CN2CCCC2)cc2c1oc(=O)c1ccccc12,inconclusive: -62% [inhibitor]
7,CCCCc1c(C)c2ccc(OCC(C)=O)cc2oc1=O,inconclusive: 25.5% [activator]
8,Cc1ccc(-c2ccc(/C=N/c3ncn[nH]3)o2)cc1Cl,inconclusive: -41.8% [inhibitor]
9,Cc1cccc(NC(=O)c2c(C)cc(=O)oc2C)n1,inconclusive: -71.3% [inhibitor]
10,O=S(=O)(c1ccccc1)N1CCC(N2CCN(c3ccccc3)CC2)CC1,inactive: 6.66%
11,NC(N)=NC(N)=Nc1c(F)c(F)c(F)c(F)c1F,inactive: -23.3% [at 7.69 µM]
12,CCCCCc1nc2sc3c(c2c(=O)n1N)CCC3,inactive: -10.1%
13,C[C@]12CC[C@@H]3c4ccc(O)cc4C(=O)C[C@H]3[C@@H]1CC[C@@H]2O,inconclusive: 35.5% [activator]
14,CN(C)c1ccc(-c2nc(N(C)Cc3ccco3)c3ccccc3n2)cc1,inconclusive: -60.6% [inhibitor] [at 7.69 µM]
15,Cc1nc2c(c(=O)n1CC1CCCO1)c1nc3ccccc3nc1n2Cc1ccc2c(c1)OCO2 (stereo not given),inconclusive: -62.3% [inhibitor]
16,COc1ccc(C(C)=O)cc1CSCCC(=O)O,inactive: 2.2%
17,CC(C)(C)NCC[C@@H](O)c1cc(C(F)(F)F)nc2c(C(F)(F)F)cccc12,inconclusive: 37.6% [activator] [at 7.69 µM]
18,Cn1c(OCc2ccc3c(c2)OCO3)nc2c1c(=O)n(Cc1cccc(Cl)c1)c(=O)n2C,inactive: 1.55%
19,CN(CCOC(=O)c1cccc(Br)c1)C(C)(C)C,inconclusive: -51.5% [inhibitor]
20,Cc1[nH]c2ccc(F)cc2c(=O)c1SC(F)(F)C(F)C(F)(F)F (stereo not given),inactive: 10.1%

row,SMILES,"activity change, negative = inhibition"
1,CCc1nc2n[nH]c(N)c2c2c1CCCC2,inactive: 1.69%
2,CCCCCc1ccc(-c2ccc(=O)[nH]n2)cc1,inconclusive: -34% [inhibitor]
3,CCC1(C)Cc2c(sc3c2c(=O)n(C)c2nnc(SCC(=O)c4ccc(Cl)cc4)n32)CO1 (stereo not given),inconclusive: -57.5% [inhibitor]
4,Cc1ccc(NC(=O)Cn2nc(C)c3ccccc3c2=O)cc1,inactive: 10.1%
5,O=C(O)[C@@H]1CS[C@@]2(CCCN(Cc3ccccc3)C2)N1,inactive: 18.2% [at 7.69 µM]
6,O=c1cnc2cnc(Oc3cccc(Cl)c3)nc2n1C1CC1,inactive: 0.268% [at 7.69 µM]
7,CN1CCCC2(CCN(S(=O)(=O)c3ccccc3)CC2)C1,inconclusive: -54.4% [inhibitor] [at 7.69 µM]
8,CC(=O)N1CCC2(CCCN(c3ccncc3)C2)CC1,inconclusive: -30.4% [inhibitor] [at 7.69 µM]
9,CCOC(=O)CSc1nc(-c2ccc3c(c2)OCO3)ccc1C#N,inactive: 18.5%
10,Clc1ccc(Cl)c(SCCCN2CCNCC2)c1,inconclusive: -67.9% [inhibitor] [at 7.69 µM]
11,COc1ccc(C[C@H](O)CN2CCOCC2)cc1,inconclusive: -47.8% [inhibitor] [at 7.69 µM]
12,COc1ccc(CC(=O)n2c(CC#N)nc3ccccc32)cc1OC,inactive: 10.4%
13,CN(C)CCCOC(=O)c1ccc(Cl)cc1Cl,inconclusive: -43.3% [inhibitor]
14,CCCCSc1nnc2n(CCc3ccccc3)c(=O)c3c4c(sc3n12)COC(C)(C)C4,inconclusive: -68.3% [inhibitor]
15,CC(C)CN1CCC2(CC1)CCN(C(=O)c1cccn1C)CC2,inconclusive: -51.7% [inhibitor] [at 7.69 µM]
16,COC(=O)CNc1nc(-c2cccnc2)nc2ccccc12,inactive: -5.87%
17,CC12CCC(C(=O)N(CCC#N)CCC#N)(CC1=O)C2(C)C (stereo not given),inactive: 18.9%
18,CC(C)NC(=O)N1CC[C@@]2(CCCN(C(=O)c3cnccn3)C2)C1,inactive: 11.4% [at 7.69 µM]
19,CCOC(=O)c1[nH]c2ccc(F)cc2c1N=C(C)N(CC)CC,inconclusive: -35.5% [inhibitor]
20,N#Cc1ccc(CN2CC3(CCN(C(=O)c4ccco4)CC3)C2)cc1,inconclusive: -59.9% [inhibitor] [at 7.69 µM]
